Measurements reported in PubChem BioAssay AID493208 (National Center for Advancing Translational Sciences (NCATS), 2011).
Hit rate of the full screen: of about 44,000 compounds, about 340 (0.77%) were called active. About 5% were inconclusive and are not listed. The call rests on the fitted dose curve; in most records, active means well fitted inhibition curve with a large enough effect; inconclusive means small, poorly fitted or top-dose-only effect; inactive means flat fitted curve, though single readings scatter. Some of the results follow.

Test: Acumen qHTS Assay for Inhibitors of the mTORC1 Signaling Pathway in MEF (Tsc2-/-, p53-/-) Cells: Sytravon;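 further: plate controls were DMSO for no effect and rapamycin for full effect; nearly all actives have a fitted effect of over 50% in size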
Settings: phospho-rpS6 immunofluorescence/PI, 24 h; series mostly up to 38.3 µM; activity change, negative = inhibition: at the top concentration
Summary of the method: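 Immunofluorescence of rpS6 phosphorylation in Tsc2-/-, p53-/- MEFs after 24 h compound exposure, normalized to propidium iodide signal. Activity is expressed as % positive cells, thresholded with 7.5 nM rapamycin.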

Compound	activity change, negative = inhibition
Cc1ccc(CNC(=O)CCc2c(C)nc3nc(C)nn3c2C)cc1	inactive: 2.43%
Cc1ccc(OCC(=O)Nc2cccc(OCc3cc(=O)n4cccc(C)c4n3)c2)cc1C	inactive: 1.17%
N#Cc1c(C(F)(F)F)cc(-c2cccs2)nc1SCC(=O)Nc1ccccc1F	inactive: 10.1%
CCc1ccc(O)c(C(=O)c2cnc3cc(-c4ccc(C)cc4)nn3c2)c1	inactive: -3.5%
Cc1cc(C)cc(NC(=O)CSc2oc(-c3ccccc3)nc2S(=O)(=O)c2ccccc2)c1	inactive: -0.962%
CCOc1ccc(-c2cc(C(=O)NCc3ccccc3Cl)c3ccccc3n2)cc1	inactive: 12.9%
Cc1cc(C)cc(NS(=O)(=O)c2ccc3[nH]cc(C(=O)NC4CCCCC4)c(=O)c3c2)c1	inactive: -10.7%
CCn1cc(S(=O)(=O)c2ccccc2)c(=O)c2cc(F)c(N3CCCC3)cc21	inactive: -4.71%
Cc1cc2nc(-c3cccc(NC(=O)C(C)C)c3C)oc2cc1C	inactive: 3.33%
COc1cc(OC)c(OC)cc1/C=C/c1nc2cc3ccccc3cc2c(=O)n1-c1ccc(F)c(Cl)c1	inactive: -8.87%
CCc1c(C)nc(SCc2nc(-c3ccccc3)no2)[nH]c1=O	inactive: 0%
O=C(c1cc(-c2ccccc2O)on1)N1CCCCC1	inactive: 13.2%
O=C(c1ccc2c(c1)N(Cc1ccccc1F)C(=O)c1ccccc1S2(=O)=O)N1CCN(c2ccccc2F)CC1	inactive: -14%
CCN(CC)C(=O)c1sc2c(c1C)c(=O)n(CCc1ccccc1)c(=O)n2Cc1ccc(F)cc1Cl	inactive: -2.23%
CCOc1ccc(C(=O)Nc2ccc3nn(-c4ccc(OC)c(Cl)c4)nc3c2)cc1	inactive: -1.62%
Cc1ccc(OCC(=O)Nc2cccc(-c3nc4ccccc4o3)c2C)cc1C	inactive: -12.4%
COc1ccc2cc(-c3nc(Cl)c4c5c(sc4n3)CC(C)CC5)c(=O)oc2c1 (stereo not drawn)	inactive: -6.13%
O=C(Cn1c(=O)n(-c2cccc(Cl)c2)c(=O)c2sc3ccccc3c21)NC1CCCCC1	inactive: -7.08%
CNC(=O)C1CCC(Cn2c(=O)c3sccc3n(CC(=O)NCc3ccc(OC)cc3)c2=O)CC1 (stereo not drawn)	inactive: -2.81%
O=C(CSCc1ccc(F)cc1)N1CCN(c2ccc(Cl)cc2)CC1	inactive: 6.3%
Clc1ccc(CN2CCC(CNc3ncnc4onc(-c5ccc(Cl)cc5)c34)CC2)cc1	inactive: -6.5%
COc1cc(OC)c(NC(=O)CCc2c(C)nc3ncnn3c2C)cc1Cl	inactive: 6.15%
CCn1c(CN2CCC(C)CC2)nc2cc(NC(=O)COc3ccc(Cl)c(C)c3)ccc21	inactive: -7.45%
CN(Cc1ccccc1)c1ccc(-c2nc(-c3ccccn3)no2)cc1[N+](=O)[O-]	inactive: -4.57%

Compound	activity change, negative = inhibition
COc1cccc(N2CCN(C(=O)c3cc4cc5cc(C)ccc5nc4s3)CC2)c1	inactive: -4.98%
COc1ccc(-c2nc(CSCC(=O)NCCc3ccccc3)c(C)o2)cc1	inactive: -17.7%
CCc1ccc(-n2c(SCc3ccccc3Cl)nc3[nH]ncc3c2=O)cc1	inactive: -9.21%
CCC(=O)N1c2ccccc2CC1C(=O)NCc1ccccc1Cl (stereo not drawn)	inactive: 0%
Cc1cccc(NC(=O)CCn2cnnn2)c1C	inactive: 6.31%
Cc1ccc(CNC(=O)c2ccc(Cn3c(=O)c4ccccc4n(CC(=O)Nc4ccc(C)cc4)c3=O)cc2)cc1	inactive: 8%
Cc1cccc(NC(=O)Cn2cc(C(=O)c3ccco3)c3ccccc32)c1	inactive: 0.172%
Cc1ccccc1OCCn1c(-c2ccc(Cl)cc2)nc2ccccc2c1=O	inactive: -16.9%
O=C(NC1(C(F)(F)F)C(=O)Nc2c1c(=O)[nH]c(=O)n2-c1ccc(Cl)cc1)c1ccccc1F (stereo not drawn)	inactive: -15.5%
COc1ccc(Cn2cc(S(=O)(=O)c3ccc(Cl)cc3)c(=O)c3cc4c(cc32)OCO4)cc1	inactive: -13.6%
CCc1ccccc1Nc1nn2c(=O)c3ccc(C(=O)NCCCOC(C)C)cc3nc2s1	inactive: -5.33%
O=C(Nc1ccc2oc(-c3ccncc3)nc2c1)c1ccccc1Cl	inactive: -25.1%
Cc1oc(-c2ccc(Cl)cc2)nc1CSc1nc2ncccc2[nH]1	inactive: 0.505%
O=C(OCc1cc(=O)n2nc(C3CCCCC3)sc2n1)c1ccc(F)cc1	inactive: -0.162%
CCOc1ccc(NC(=O)CC2C(=O)N(c3ccc(Cl)cc3)C(=O)N2Cc2cccs2)cc1 (stereo not drawn)	inactive: -15.8%
COc1cccc(NC(=O)c2ccc(-c3nc(COc4ccccc4)c(C)o3)cc2)c1	inactive: 3.07%
COC(=O)c1c(NC(=O)/C(C#N)=C/c2ccccc2)sc2c1CCC2	inactive: -6.61%
CCOc1ccc(NC(=O)c2sc3nc4c(c(-c5ccc(OC)cc5)c3c2N)C(=O)CC(C)(C)C4)cc1	inactive: -2.08%
CCOc1ccc(-n2cc(-c3ccccc3)c3c(N4CCN(c5ccccc5OC)CC4)ncnc32)cc1	inactive: 9.32%
CCCCN(CC)C(=O)CSc1c2c(nc3ccc(Cl)cc13)CCCC2	inactive: -11.1%
COc1ccc(-c2noc(-c3cccnc3N3CCN(c4ccc(OC)cc4)CC3)n2)cc1	inactive: 0.241%
CCOCCCNC(=O)CN1C(=O)COc2ccc(S(=O)(=O)N3CCCC3)cc21	inactive: -4.78%
CCOC(=O)c1c(C)[nH]c(C)c1S(=O)(=O)N1CCCC(C(=O)NCc2ccc(Cl)cc2)C1 (stereo not drawn)	inactive: -0.697%
COc1ccccc1Nc1cc(C(=O)NC2CCC(C)CC2)c2ccccc2n1 (stereo not drawn)	inactive: -4.63%
